# In PubChem BioAssay (Tox21):
# Values joined by “and” are separate entries in the source; they are usually repeats but may differ in a detail not shown here. Identical values can stand only once. This list was built around the results that the source calls inconclusive (neither active nor inactive); the mix of calls is not that of the screen. For some of these results: Potencies of inconclusive entries are doubtful fits and often do not repeat. Active and inactive are the calls of the source. Unless noted, calls follow the shape of the dose curve; as a rule, active = well fitted curve in the direction sought with a large enough effect in the repeat runs; inconclusive = weak or mixed curves; inactive = no such curve, though single readings can be large; an effect the other way counts as inactive or inconclusive.
# Key:
# [1] = target: Nuclear receptor subfamily 1 group I member 3 (Homo sapiens) (UniProt Q14994); assay: qHTS assay to identify small molecule agonists of the constitutive androstane receptor (CAR) signaling pathway (AID 1224839); also: nearly all actives have a fitted effect of over 15% in size; also: potency is read from the fitted curve at half-maximal effect;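 as to activation: HepG2 cells stably carrying human CAR and a CYP2B6 luciferase reporter; % is scaled to controls: 0 for no effect and ±100 for the full control effect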
# Chain of UniProt Q14994 (Q14994 whole entry, looked up): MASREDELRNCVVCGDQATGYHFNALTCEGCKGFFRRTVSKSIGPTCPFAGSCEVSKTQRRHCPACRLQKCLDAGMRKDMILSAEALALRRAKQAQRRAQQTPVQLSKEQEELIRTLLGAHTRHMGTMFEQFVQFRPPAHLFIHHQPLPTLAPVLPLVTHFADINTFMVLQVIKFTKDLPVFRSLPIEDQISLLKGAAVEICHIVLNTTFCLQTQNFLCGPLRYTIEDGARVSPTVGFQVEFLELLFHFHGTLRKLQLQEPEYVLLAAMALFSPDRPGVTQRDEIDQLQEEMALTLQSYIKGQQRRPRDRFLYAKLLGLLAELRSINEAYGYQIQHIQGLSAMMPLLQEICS
# Method in brief: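 HepG2 cells stably expressing hCAR and a CYP2B6-2.2kb luciferase reporter were treated with compounds at 15 concentrations plus 0.75 uM PK11195 (final) for 24 h at 37 C; luminescence was read after ONE-Glo addition.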
# [2] = qHTS assay to identify small molecule antagonists of the estrogen related receptor signaling pathway with the pleiotropic PPARgamma coactivator (PGC) from Tox21 10K library (AID 1224841; call rule not given here; also: actives are mostly falling curves and most rising ones were filed inactive; nearly all actives have a fitted effect of over 50% in size; also: potency is read from the fitted curve at half-maximal effect)
# Method in brief: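 One-Glo luminescence, measured after half an hour at room temperature, quantified reporter output of PGC/ERR cells. These had been plated at 2,000 per well, incubated 6 h, dosed with compounds in DMSO, then kept 18 h at 37 C.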
# [3] = qHTS assay to identify small molecule agonists of the hypoxia (HIF-1) signaling pathway (AID 1224846; active = well fitted activation curve with a large enough effect in the signal ratio in the repeat runs, not every such curve was filed as active; inconclusive = weak or mixed curves; the % refers to the signal ratio; also: potency is read from the fitted curve at half-maximal effect; as to activation: % is scaled to controls: 0 for no effect and ±100 for the full control effect); conditions: HRE-bla ME-180 cells, beta-lactamase ratio, 17 h; activation: at 76.8 µM (top of the series) unless noted
# Method in brief: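 ME-180 HRE-bla reporter cells; compounds in DMSO, 17 h at 37C; read-out beta-lactamase via CCF4-AM FRET.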
# [4] = qHTS assay to identify small molecule antagonists of the estrogen related receptor (ERR) signaling pathway from Tox21 library (AID 1224848); also: potency is read from the fitted curve at half-maximal effect; nearly all actives have a fitted effect of over 50% in size
# Method in brief: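 Compounds dissolved in DMSO are pin-transferred onto ERR reporter cells (2,000 per well) that have settled for 6 h at 37 C. Plates then incubate 18 h at 37 C before ONE-Glo luciferase reagent and a luminescence read 30 min later.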
# [5] = qHTS assay to identify small molecule agonists of the estrogen related receptor signaling pathway with the pleiotropic PPARgamma coactivator (PGC) from Tox21 10K library (AID 1224842); also: potency is read from the fitted curve at half-maximal effect; nearly all actives have a fitted effect of over 15% in size
# Method in brief: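 PGC/ERR reporter cell line, 2,000 cells per well, incubated 6 h at 37 C before 23 nL compound in DMSO was added. After 18 h at 37 C, One-Glo luminescence read following 30 min at room temperature.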
# [6] = qHTS assay to identify small molecule agonists of the hypoxia (HIF-1) signaling pathway - cell viability counter screen (AID 1224844; calls by dose curve; also: nearly all actives have a fitted effect of over 50% in size; also: potency is read from the fitted curve at half-maximal effect)
# Method in brief: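 In this counter screen, HRE-bla ME-180 cell viability after 17 hrs of compound exposure at 37C was read by CellTiter-Glo luminescence, multiplexed with the beta-lactamase reporter measurement.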
# [7] = qHTS assay to identify small molecule agonists of the estrogen related receptor (ERR) signaling pathway from Tox21 library (AID 1224849; calls by dose curve; also: % is scaled to controls: 0 for no effect and ±100 for the full control effect; nearly all actives have a fitted effect of over 15% in size); conditions: ERR reporter cell line, ONE-Glo luciferase, 18 h
# Method in brief: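 Luciferase activity in ERR pathway reporter cells served as the agonist readout; exposure lasted 18 h at 37 C, with ONE-Glo detection after 30 min at room temperature.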
# [8] = qHTS assay to identify small molecule antagonists of the estrogen related receptor signaling pathway with the pleiotropic PPARgamma coactivator (PGC) from Tox21 10K library - cell viability counter screen (AID 1224840; active = well fitted cell-killing curve with a large enough effect in the repeat runs, not every such curve was filed as active; inconclusive = weak or mixed curves, or effect the other way; inactive = no such curve, though single readings can be large or run the other way; also: nearly all actives have a fitted effect of over 40% in size; also: potency is read from the fitted curve at half-maximal effect)
# Method in brief: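 Readout: fluorescence intensity from CellTiter-Fluor after 30 min at 37 C/5% CO2. Preceded by 17.5 h treatment of PGC/ERR cells with DMSO-dissolved compounds, added 6 h post-seeding.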
# [9] = qHTS assay to identify small molecule agonists of H2AX (AID 1224845; active = well fitted activation curve with a large enough effect in the signal ratio in the repeat runs, not every such curve was filed as active; inconclusive = weak or mixed curves; the % refers to the signal ratio; also: potency is read from the fitted curve at half-maximal effect); conditions: CHO-K1 phospho-H2AX Ser139 HTRF, 3 h; activation (H2AX phosphorylation): at 154 µM (top of the series) unless noted
# Method in brief: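 Wild-type CHO-K1 cells, plated overnight, exposed 3hr at 37C to 15 concentrations (0.76% DMSO final). Lysed, then HTRF anti-pH2AX (S139) cryptate and anti-H2AX-d2 antibodies, 24 hr room temperature; 665/620 nm emission read.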
# [10] = target: Thyrotropin receptor (Homo sapiens) (UniProt P16473); assay: qHTS assay to identify small molecule agonists of the thyroid stimulating hormone receptor (TSHR) signaling pathway (AID 1224843; calls by dose curve; also: nearly all actives have a fitted effect of over 45% in size; also: potency is read from the fitted curve at half-maximal effect; as to activation: % is scaled to controls: 0 for no effect and ±100 for the full control effect); conditions: TSHR-HEK293 cells, cAMP HTRF, agonist mode, 30 min; activation: at 92.4 µM (top of the series) unless noted
# Chain of UniProt P16473 (P16473 whole entry, looked up): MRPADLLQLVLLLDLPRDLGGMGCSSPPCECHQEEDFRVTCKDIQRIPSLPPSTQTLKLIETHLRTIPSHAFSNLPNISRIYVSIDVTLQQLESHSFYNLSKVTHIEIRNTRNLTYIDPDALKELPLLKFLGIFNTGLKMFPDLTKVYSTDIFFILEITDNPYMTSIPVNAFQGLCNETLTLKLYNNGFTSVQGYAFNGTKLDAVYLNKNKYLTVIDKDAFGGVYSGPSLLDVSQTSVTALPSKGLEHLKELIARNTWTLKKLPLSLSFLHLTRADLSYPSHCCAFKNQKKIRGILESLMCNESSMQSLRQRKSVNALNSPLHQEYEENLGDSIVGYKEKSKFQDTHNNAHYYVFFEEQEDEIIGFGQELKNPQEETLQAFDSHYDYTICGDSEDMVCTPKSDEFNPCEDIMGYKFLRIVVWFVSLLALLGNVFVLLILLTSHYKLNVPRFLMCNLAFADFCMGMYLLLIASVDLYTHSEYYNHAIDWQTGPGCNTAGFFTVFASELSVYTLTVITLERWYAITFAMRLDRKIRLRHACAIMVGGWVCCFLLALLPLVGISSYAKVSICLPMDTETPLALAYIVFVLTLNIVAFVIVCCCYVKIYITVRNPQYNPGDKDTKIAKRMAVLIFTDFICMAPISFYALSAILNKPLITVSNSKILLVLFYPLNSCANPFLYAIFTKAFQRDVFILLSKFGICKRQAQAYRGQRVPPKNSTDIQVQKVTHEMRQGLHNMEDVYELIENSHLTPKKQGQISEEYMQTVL
# Method in brief: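 HEK293/TSHR, 800 cells/well; cpd 30 min RT; add cAMP-d2 + anti-cAMP-cryptate, 1 h RT; fluorescence read on plate reader. 15-pt titration, n=3.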
# [11] = qHTS assay to identify small molecule agonists of H2AX - cell viability counter screen (AID 1224847; calls by dose curve; also: potency is read from the fitted curve at half-maximal effect; nearly all actives have a fitted effect of over 30% in size)
# Method in brief: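 Wild-type CHO-K1 cells (10% FBS medium) were plated overnight at 37C, exposed to compounds at 15 concentrations for 3 hr at 37C (0.76% DMSO final), and viability was read as CellTiter-Glo luminescence after 30 min at room temperature.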
# [12] = qHTS RealTime-Glo MT Cell Viability Assay in HEK293 cells - 32 hour (AID 1224868); also: top concentration of the series differs between compounds; % is scaled to controls: 0 for no effect and ±100 for the full control effect; nearly all actives have a fitted effect of over 50% in size
# Method in brief: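 Viability tracked continuously by luminescence as live cells reduce a prosubstrate for NanoLuc; HEK293 cells preincubated 5 h, compound-treated at 37 C, and read at 0, 8, 16, 24, 32 and 40 h.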
# Tags tell the direction and shape of the fitted curve or compound fluorescence and quenching.
structure (smiles),measurement,setting,value
O=S(=O)(c1ccccc1)c1ccc(Cl)cc1,Potency,[1],"inconclusive: 54.5 µM [activator, partial curve]"
same,Potency,[2],"inconclusive: 30.6 µM [falling, single point]"
same,Potency,[3],inactive
same,Potency,[4],"inconclusive: 48.6 µM [inhibitor, partial curve]"
CC1=CC(C)(C)Nc2ccccc21,Potency,[1],"inconclusive: 33.5 µM [activator, partial curve]"
same,Potency,[2],"inconclusive: 59.5 µM [falling, partial curve, poor fit]"
same,Potency,[4],inconclusive: 66.8 µM [inhibitor]
O=C(O)c1ccccc1NCCc1ccccc1,Potency,[1],active: 26.6 µM
same,Potency,[5],"inconclusive: 26.6 µM [activator, partial curve]"
same,Potency,[6],inactive
same,"activity change, positive = activation",[7]; at 42.5 µM (top of the series),inconclusive: -0.514%
O=C(c1ccccc1)c1ccc2n1CCC2C(=O)O (stereo unspecified),Potency,[1],"inconclusive: 23.7 µM [activator, partial curve]"
CCc1c(C)cc(N)c(CC)c1N,Potency,[1],inconclusive: 61.1 µM [activator]
same,Potency,[2],"inconclusive: 27.3 µM [falling, partial curve, poor fit]"
CC1CC(O)CC(C)(C)C1 (stereo unspecified),Potency,[1],inactive
ON(Cc1ccccc1)Cc1ccccc1,Potency,[1],"inconclusive: 54.5 µM [activator, partial curve]"
C/C=C/c1ccc(OCC)c(O)c1,Potency,[1],inactive
same,Potency,[8],"inconclusive: 0.243 µM [cytotoxic, single point]"
same,Potency,[9],inconclusive: 113 µM [activator]
CC1=C(C)S(=O)(=O)CCS1(=O)=O,Potency,[1],"inconclusive: 13.7 µM [activator, partial curve]"
same,Potency,[8],inactive
same,Potency,[2],inactive
C/C=C/c1ccc(OC)cc1,Potency,[1],inactive
same,activation,[10],inconclusive: 0.803%
CCCCOc1cc(C(=O)OCCN(CC)CC)ccc1N,Potency,[1],"inconclusive: 26.6 µM [activator, partial curve, poor fit]"
COc1ccc(N)c(OC)c1,Potency,[1],"inconclusive: 54.5 µM [activator, partial curve]"
same,Potency,[8],inconclusive: 61.1 µM [cytotoxic]
same,Potency,[10],inactive
same,Potency,[6],"inconclusive: 18.7 µM [cytotoxic, partial curve]"
CC(C)CCCCCOC(=O)CCCCC(=O)OCCCCCC(C)C,Potency,[1],inactive
same,activation,[10],inconclusive: -23.9%
CCOC(=O)c1cnc2c(cnn2CC)c1NN=C(C)C,Potency,[1],inactive
C=CCOc1c(Br)cc(Br)cc1Br,Potency,[1],"inconclusive: 30.6 µM [activator, partial curve]"
same,Potency,[10],"inconclusive: 24.3 µM [inhibitor, single point]"
Cc1cc(=O)oc2cc(O[C@@H]3SC[C@@H](O)[C@H](O)[C@H]3O)ccc12,Potency,[1],"inconclusive: 13.3 µM [activator, single point]"
Cc1ccc2sc3cccc(C)c3c2c1,Potency,[1],active: 27.3 µM
same,Potency,[10],inactive
O=C(c1ccccc1)C(O)c1ccccc1 (stereo unspecified),Potency,[1],"inconclusive: 60.6 µM [activator, partial curve] and inconclusive: 54.5 µM [activator, partial curve] and inconclusive: 26.6 µM [activator]"
same,Potency,[8],inactive
same,Potency,[9],"inconclusive: 126 µM [rising, single point]"
COc1cc(Cl)ccc1Oc1ccc(Cl)cc1Cl,Potency,[1],active: 29.8 µM
same,Potency,[5],"inconclusive: 33.4 µM [activator, partial curve]"
same,Potency,[9],"inconclusive: 110 µM [activator, single point]"
same,"activity change, positive = activation",[7]; at 92.4 µM (top of the series),inconclusive: 16.9%
C=CC(C)(O)CCCC(C)CCCC(C)CCCC(C)C (stereo unspecified),Potency,[1],inactive
C[C@H](N)C(=O)N[C@@H](C)C(=O)NC1[C@H]2CN(c3nc4c(cc3F)c(=O)c(C(=O)O)cn4-c3ccc(F)cc3F)C[C@@H]12 (stereo partly specified),Potency,[1],"inconclusive: 29.8 µM [activator, partial curve]"
same,Potency,[2],inactive
same,Potency,[5],inconclusive: 29.8 µM [activator]
same,Potency,[3],"inconclusive: 10.7 µM [falling, full curve, poor fit]"
same,"activity change, positive = activation",[7]; at 42.5 µM (top of the series),inconclusive: 39.2%
CC(Cl)COP(=O)(OCC(C)Cl)OCC(C)Cl (stereo unspecified),Potency,[1],"inconclusive: 24.2 µM [activator, partial curve]"
CC(C)(C)c1ccc(OC(=O)c2ccccc2O)cc1,Potency,[1],"inconclusive: 54.5 µM [activator, partial curve, poor fit]"
same,Potency,[5],active: 10.9 µM
same,Potency,[11],"inconclusive: 127 µM [cytotoxic, single point]"
same,Potency,[12],inactive
CC(COc1ccccc1)NC(C)C(O)c1ccc(O)cc1 (stereo unspecified),Potency,[1],inactive
same,Potency,[2],inactive
same,Potency,[3],inactive
CC(C)(C)c1ccc(-c2ccc(C(C)(C)C)cc2)cc1,Potency,[1],inactive
C=C(C)C(=O)OCCOCCOCCOC(=O)C(=C)C,Potency,[1],"inconclusive: 68.7 µM [activator, single point]"
CC(C)(C)NCC(O)COc1ccc(NC(=O)NC2CCCCC2)cc1 (stereo unspecified),Potency,[1],"inconclusive: 26.6 µM [activator, partial curve]"
